Assay results reported in PubChem BioAssay AID1030 (National Center for Advancing Translational Sciences (NCATS), 2008).
Among all 220,000 compounds or so, about 16,000 (7.3%) were called active. The shares of active, inactive and inconclusive entries below differ from those in the screen. Calls follow the shape of the dose curve; as a rule, active = well fitted inhibition curve with a large enough effect (not every such curve was filed as active); inconclusive = small, poorly fitted or top-dose-only effect, or another doubt; inactive = no such curve, though single readings can be large or run the other way. Potencies of inconclusive entries are left out as doubtful fits.

biological target: Aldehyde dehydrogenase 1A1 (Homo sapiens) (UniProt P00352); assay: qHTS Assay for Inhibitors of Aldehyde Dehydrogenase 1 (ALDH1A1); conditions: Purified ALDH1A1, NADH fluorescence, propionaldehyde substrate; series mostly up to 75.3 µM
UniProt P00352, sequence (P00352 whole entry, looked up): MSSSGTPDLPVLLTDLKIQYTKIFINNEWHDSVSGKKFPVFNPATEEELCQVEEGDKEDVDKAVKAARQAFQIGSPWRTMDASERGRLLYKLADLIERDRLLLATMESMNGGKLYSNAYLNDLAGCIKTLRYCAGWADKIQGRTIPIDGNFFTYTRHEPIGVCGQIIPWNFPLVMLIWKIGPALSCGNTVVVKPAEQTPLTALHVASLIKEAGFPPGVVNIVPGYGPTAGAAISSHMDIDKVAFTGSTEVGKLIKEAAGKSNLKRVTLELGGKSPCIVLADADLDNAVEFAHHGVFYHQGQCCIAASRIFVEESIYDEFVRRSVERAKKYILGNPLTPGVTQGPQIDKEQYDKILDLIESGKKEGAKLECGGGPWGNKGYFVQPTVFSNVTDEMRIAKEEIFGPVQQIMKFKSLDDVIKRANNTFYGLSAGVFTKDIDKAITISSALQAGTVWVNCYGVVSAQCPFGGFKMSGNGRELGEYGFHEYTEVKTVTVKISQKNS
Potency is read from the fitted curve at half-maximal effect; tags tell the direction and shape of the fitted curve.

SMILES | Potency
S=c1[nH]nc(CCc2ccccc2)n1Cc1ccccc1 | inconclusive [inhibitor, partial curve]
C/C(CCc1ccccc1)=N\NC(=O)c1ccc(CN2CCOCC2)cc1 | active: 25.1 µM
O=C(COc1ccc(Cl)cc1)N1CCN(S(=O)(=O)c2ccccc2)CC1 | inconclusive [inhibitor, single point]
CCn1c(O)c(/C=C2\C=Nc3ccccc32)sc1=Nc1ccccc1 | inconclusive [inhibitor, partial curve]
CC(C)c1ccc(CN(C)CC(O)c2ccccc2)cc1 (stereo not given) | inactive
Cc1ccc2[nH]c(=O)c(C3=NN(C(=O)CCC(=O)O)C(c4cccs4)C3)c(-c3ccccc3)c2c1 (stereo not given) | inconclusive [inhibitor, single point]
Cc1ccc2nc(NC(=O)c3ccc(NS(=O)(=O)c4cccs4)cc3)sc2c1 | inconclusive [inhibitor, single point]
COc1ccc(C)cc1-n1nnnc1SCn1nnc2ccccc2c1=O | active: 17.8 µM
CCc1ccc(/C=C/C(=O)c2cc(Br)ccc(=O)c2O)cc1 | inconclusive [inhibitor, partial curve]
Fc1ccc(F)c(NC(=S)NCCc2ccccc2)c1 | inconclusive [inhibitor, single point]
COc1ccc(C(C(=O)OC(C)CN(C)C)c2ccccc2)cc1 (stereo not given) | inconclusive [inhibitor, partial curve]
CC(C)COC(=O)c1ccccc1N1C(=O)C2C3CCC(C3)C2C1=O (stereo not given) | inactive
CCOCCCNC(=O)/C(C#N)=C/c1ccc(C)o1 | inconclusive [inhibitor, partial curve]
Cc1cccc(C)c1OCC(=O)Nc1cccc(C(=O)O)c1 | inconclusive [inhibitor, partial curve, poor fit]
O=C(c1ccncc1)N1CCC2(CCCN(c3ccccn3)C2)CC1 | inconclusive [inhibitor, partial curve]
CC(C)(C)C1=NN(c2ccc([N+](=O)[O-])cc2)C(c2ccccc2)C1 (stereo not given) | inconclusive [inhibitor, partial curve]
c1ccc(CSc2ccc(-c3cccs3)nn2)cc1 | inactive
COC(CNC(=O)c1ccc(N2CCC3(CC2)OCCO3)c([N+](=O)[O-])c1)OC | active: 28.2 µM
COC(=O)C/C=C/[C@@H](C)[C@@H](Cc1ccccc1Br)OC | inactive
CC1(C)CC(=O)c2sc(NS(=O)(=O)c3ccc(Br)cc3)nc2C1 | inconclusive [inhibitor, partial curve]
